Test results reported in PubChem BioAssay AID686978 (National Center for Advancing Translational Sciences (NCATS), 2013).
Where “and” joins values, the source holds several entries; their conditions need not be identical. Identical values can stand only once. Among all 420,000 compounds or so, about 64,000 (15%) were called active. This list was built around the results that the source calls inconclusive (neither active nor inactive); the mix of calls is not that of the screen. Calls come from the whole dose curve; as a rule, active = well fitted inhibition curve with a large enough effect; inconclusive = small, poorly fitted or top-dose-only effect; inactive = flat fitted curve, though single readings scatter. Potencies of inconclusive entries are left out as doubtful fits.

experiment: qHTS for Inhibitors of human tyrosyl-DNA phosphodiesterase 1 (TDP1): qHTS in cells in absence of CPT; conditions: DT40 Tdp1-/- hTDP1 cells, no CPT, ATP luminescence, 48 h; activity change, negative = growth inhibition: at 46.2 µM (top of the series); note: nearly all actives have a fitted effect of over 55% in size
Method in brief: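 Readout: luminescence from CellTiter-Glo after 30 min in the dark at RT. Cells: DT40 Tdp1-/- with stable hTDP1, 400/well. Exposure: compounds alone, ≥48 hr, 37 °C.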
% is set by controls: 0 for no effect and ±100 for the full control effect; potency is the fitted concentration of half-maximal effect; tags give direction and shape of the fitted curve.

| SMILES | Potency | activity change, negative = growth inhibition |
| --- | --- | --- |
| Cc1csc(NC(=O)C2CC(=O)N(c3ccc(C)c(C)c3)C2)n1 (centres undefined) | inactive |  |
| COc1nc(OC/C(N)=N/O)nc(N2CCOCC2)n1 | inactive |  |
| Cc1ccccc1SCC(=O)NCC(c1ccc(F)cc1)N1CCOCC1 (centres undefined) | inconclusive [inhibitor, single point] |  |
| CCN(CC)CCN1C(=O)/C(=C\c2ccc(Cl)c([N+](=O)[O-])c2)SC1=Nc1ccc(OC)cc1 | active: 16.4 µM |  |
| O=C(c1cc(Br)c(Br)s1)N1CCN(C/C=C/c2ccccc2)CC1 | inactive |  |
| Cc1ccc(NCCCn2ccc(NC(=O)OCc3ccccc3)nc2=O)cc1C | inconclusive [inhibitor, single point] |  |
| CCC(C)CCN1C(N(C)C)=NC[C@@H]1Cc1ccccc1 (some centres undefined) | inconclusive [inhibitor, single point] |  |
| O=C(COC(=O)Cc1ccccc1F)Nc1ccc(Cl)cn1 | inconclusive [inhibitor, single point] |  |
| COC(=O)Cn1c(O)c(N=NC(=O)c2ccc3c(c2)OCO3)c2ccccc21 | inactive |  |
| CCOc1ccc(OCC)c(NC(=O)CN2CCN(c3cccc(C)c3)C(C)C2)c1 (centres undefined) | active: 14.6 µM |  |
| NC(=O)c1nnsc1-c1ccc(-c2snnc2C(N)=O)cc1 | inactive |  |
| COc1ccccc1CN(C)CC(=O)Nc1cccc(S(=O)(=O)N2CCCC2)c1 | active: 23.1 µM |  |
| O=C(NN=Cc1ccc2c(c1)CCC2)c1ccccc1[N+](=O)[O-] | active: 18.4 µM |  |
| Cc1[nH]n(-c2ccccc2)c(=O)c1C(=O)c1ccc(Cl)cc1 | inconclusive [inhibitor, single point] |  |
| CCN(CC)c1nc(Nc2ccc([N+](=O)[O-])cc2)nc(N(CC)CC)n1 | active: 20.6 µM |  |
| N#Cc1ccsc1NC(=O)c1cnccn1 | inactive |  |
| CC(C)C(=O)Nc1ccc(NC(=O)c2ccc3c(c2)OCO3)cc1 |  | inconclusive: -31.1% [inhibitor] |
| COc1ccc(-c2cc(C(=O)NCc3cc(OC)c(OC)c(OC)c3)[nH]n2)cc1 | inconclusive [inhibitor, single point] |  |
| CCc1ccc(S(=O)(=O)c2nnn3c2nc(N2CCC(C)CC2)c2cc(Cl)ccc23)cc1 | active: 10.3 µM |  |
| Cc1cccc(OCC(=O)Nc2c(C)ccc3nsnc23)c1C | inconclusive [inhibitor, partial curve] |  |
| CNc1cc(C(=O)O)nc2ccccc12 | active: 1.12 µM |  |
| Cc1cc(C(=O)CSc2nc(N)cc(=O)[nH]2)c(C)n1CCc1ccc(Cl)cc1 | active: 16.4 µM |  |
| Cc1cc2c3c(c1)C1(C(=O)N3C(C)(C)CC2C)C(C#N)=C(N)Oc2cc(O)ccc21 (centres undefined) | active: 25.1 µM |  |
| O=C(Cc1c(Cl)cccc1Cl)OCC(=O)N1CCN(C(=O)c2ccco2)CC1 | inactive |  |
| CC1CCCC(NC(=O)C2CCCN2S(=O)(=O)c2cccc3nsnc23)C1C (centres undefined) | active: 14.6 µM |  |

| SMILES | Potency | activity change, negative = growth inhibition |
| --- | --- | --- |
| O=C(CSc1nc2ccccc2c(=O)n1-c1ccccc1)N/N=C/C=C/c1ccccc1[N+](=O)[O-] | inconclusive [inhibitor, single point] |  |
| O=S(=O)(NC(=S)NC1CCCCC1)c1cccs1 | inactive |  |
| COc1ccc(CN(CC2CCCO2)C(=O)c2cc3ccccc3oc2=O)cc1 (centres undefined) | inconclusive [inhibitor, single point] |  |
| Cc1ccc(-c2nn(C)c(=O)c3ccccc23)cc1S(=O)(=O)NCCN(C)C |  | inconclusive: -31.5% [inhibitor] |
| CC1(C)NC(=O)N(CCCCOc2ccc(Br)cc2Cl)C1=O | inconclusive [inhibitor, single point] |  |
| CCCCCCCC/C=C\C/C=C\C/C=C\CCCC(=O)NCCO |  | inactive: -12.7% [at 4.12 µM] |
| O=C(Cc1ccccc1)NCC(=O)OCC(=O)c1ccc(Cl)cc1 | inactive |  |
| COc1ccc(NC(=O)c2ccccc2CC[N+](=O)[O-])cc1 | inactive |  |
| COc1ccc(C2=NS(=O)(=O)N(C)C(C(=O)Nc3cc(C)ccc3O)=C2)cc1OC | active: 18.4 µM and active: 5.17 µM |  |
| CCCCCCn1c(C(C)O)nc2ccccc21 (centres undefined) | inconclusive [inhibitor, single point] |  |
| CCOC(=O)C1Nc2c(cc(C(F)(F)F)cc2[N+](=O)[O-])C2c3ccccc3CC12 (centres undefined) | inconclusive [inhibitor, single point] |  |
| O=C(c1ccccc1F)N1CCN(Cc2ccc3c(c2)OCO3)CC1 | inactive |  |
| C[C@H](CO)N1C[C@H](C)[C@@H](CN(C)C(=O)Nc2ccc(C(F)(F)F)cc2)Oc2ccc(NC(=O)C3CCCCC3)cc2C1=O | inconclusive [inhibitor, single point] |  |
| O=C(Cc1n[nH]c(=O)c2ccccc12)OCC(=O)N(Cc1ccccc1)Cc1ccccc1 | inconclusive [inhibitor, single point] |  |
| CO[C@@H]1CN(C)C(=O)c2cc(NS(=O)(=O)c3ccc(C)cc3)ccc2OC[C@H](C)N(Cc2nccs2)C[C@H]1C | inconclusive [inhibitor, single point] |  |
| COc1cccc(N2CCN(S(=O)(=O)c3cc(Br)cc4c3N(C(=O)C3CC3)CC4)CC2)c1 | inconclusive [inhibitor, single point] |  |
| NC(=O)c1cccc(-c2cnc3c(Nc4cccc(OC(F)(F)C(F)F)c4)nccn23)c1 | inconclusive [inhibitor, single point] |  |
| Cc1cc2cc(CCNC(=O)C(=O)c3c[nH]c4ccccc34)c(=O)[nH]c2cc1C | active: 18.4 µM |  |
| NS(=O)(=O)c1ccc(NC(=O)CSc2n[nH]c(=O)n2C2CC2)cc1 | inactive |  |
| O=c1[nH]c(SCCOc2ccccc2)nc2ccccc12 | inconclusive [inhibitor, partial curve] |  |
| CCOC(=O)c1ccc(Nc2cc(C)nc(C)c2C(=O)OCC)cc1 | active: 18.4 µM |  |
| Cc1ccc(-c2n[nH]c(=S)c3ccccc23)cc1S(=O)(=O)NCC1CCCO1 (centres undefined) | inconclusive [inhibitor, partial curve] |  |
| O=C(CSc1n[nH]c(=O)n1C1CC1)Nc1cc(Cl)ccc1Oc1ccccc1 | active: 14.6 µM |  |
| COc1ccc2[nH]c(=O)c(CN(Cc3cccnc3)S(=O)(=O)c3ccccc3F)cc2c1 | active: 18.4 µM |  |
| C=CCn1c(CNS(=O)(=O)c2ccc(Br)cc2)n[nH]c1=S | inconclusive [inhibitor, full curve] |  |

| SMILES | Potency | activity change, negative = growth inhibition |
| --- | --- | --- |
| O=C1CSC(c2cccc([N+](=O)[O-])c2)N1c1ccccc1F (centres undefined) |  | inconclusive: -31.6% [inhibitor] |
| Cc1cc2c(cc1C)-n1nnnc1C(N1CCN(c3ccccn3)CC1)C(c1ccc3c(c1)OCO3)=N2 (centres undefined) | inconclusive [inhibitor, partial curve] |  |
| Cc1nc(C)c(-c2csc(Nc3ccc(F)cc3)n2)s1 | inconclusive [inhibitor, partial curve] |  |
| Cc1ccc(S(=O)(=O)N2CCN(c3ccnc(-c4cccs4)n3)CC2)cc1 | inconclusive [inhibitor, single point] |  |
| COc1ccc(S(=O)(=O)N2CCC(Cc3ccccc3)CC2)cc1NC(C)=O | inactive |  |
| CCc1sc(-c2cc3cccc(OC)c3oc2=O)nc1-c1cc(C)ccc1C | inconclusive [inhibitor, single point] |  |
| O=[N+]([O-])c1ccc(-c2nc(-c3ccncc3)no2)cc1 |  | inconclusive: -31.1% [inhibitor] |
| CCNc1nc(NC(C)CC)nc(ON=C(C)C)n1 (centres undefined) | inactive |  |
| CC1(C(=O)NCc2ccc3c(c2)OCO3)CCN1C(=O)CC1CCCC1 (centres undefined) | inconclusive [inhibitor, single point] |  |
| O=C(CSc1nc(-c2ccco2)cc(C(F)(F)F)n1)N1CCc2ccccc2C1 | inconclusive [inhibitor, partial curve] |  |
| Cc1cc(Br)c(S(=O)(=O)NCc2cccnc2)cc1C | inactive |  |
| CCOC(=O)c1c(C)n(-c2ccccc2)c2ccc(OC(=O)c3ccccc3)cc12 | active: 16.4 µM |  |
| Cc1cccc(-c2noc(CN(C(=O)COc3ccc(C(C)C)cc3)C(C)C)n2)c1 | active: 16.4 µM |  |
| Cc1ccc(NC(=O)CC2C(=O)N(Cc3ccccc3)C(=S)N2NC(=O)c2ccccc2)c(C)c1 (centres undefined) | inconclusive [inhibitor, single point] |  |
| CCc1cc2cc3c(cc2nc1SCC(=O)Nc1nccs1)OCO3 | inactive |  |
| CNC(=S)N1CCc2cc(OC)c(OC)cc2C1COc1ccc(F)cc1 (centres undefined) | inactive |  |
| COc1ccccc1NS(=O)(=O)c1cccc(C(=O)NCC(c2ccc(F)cc2)N2CCOCC2)c1 (centres undefined) | inconclusive [inhibitor, single point] |  |
| O=C(NCCc1cccnc1)C1CCC(=O)N(Cc2ccc(Cl)cc2)C1 (centres undefined) | inactive |  |
| CC(=O)N1CCN(S(=O)(=O)c2ccc(C)cc2)C1c1ccc(N(C)C)cc1 (centres undefined) | inconclusive [inhibitor, partial curve] |  |
| CCOC(=O)c1cccc(NC(=O)c2ccccc2C)c1 | inconclusive [inhibitor, single point] |  |
| CCOc1ccc(CCNC(=O)CCc2c(C)nc3c4c(C)cc(C)nc4nn3c2C)cc1 | inactive |  |
| CC(=O)c1cc(O)c2ccccc2c1O | active: 4.61 µM |  |
| O=C(COc1ccc(S(=O)(=O)N2CCCC2)cc1Cl)NC1CCCC1 | inconclusive [inhibitor, partial curve] |  |
| COc1ccccc1C1C=C(c2ccc(F)cc2)Nc2nc(-c3ccc(Cl)cc3)nn21 (centres undefined) | active: 16.4 µM |  |
